No constants are given. Whether binding was seen depends on the method and setting. Binding seen in cells or lysates may run through a third protein. Some binding calls cover weakened binding; strength is not graded here. Where a sequence is shown, tags or fusion partners need not be part of it.
Experiments:
Assay in all cases: pull-down; GST fusion proteins immobilized on glutathione-Sepharose 4B beads, incubated overnight at 4°C with lysates of transfected HEK293 cells (PBS, 1% Triton X-100, 1 mM EDTA, pH 7.4); western blot; only the target purified
[1] = molecular target: T1, GST N-terminal (Myo9a amino acids 2-130 fused to GST) (rat) (UniProt Q9Z1N3)
T1 sequence: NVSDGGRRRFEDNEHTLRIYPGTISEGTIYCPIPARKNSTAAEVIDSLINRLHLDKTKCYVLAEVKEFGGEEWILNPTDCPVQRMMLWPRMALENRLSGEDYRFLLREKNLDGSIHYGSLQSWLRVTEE

Chains of the proteins cited; added tags and fusions are not shown. Residues count along the entry.
UniProt P19490, residues 19-907: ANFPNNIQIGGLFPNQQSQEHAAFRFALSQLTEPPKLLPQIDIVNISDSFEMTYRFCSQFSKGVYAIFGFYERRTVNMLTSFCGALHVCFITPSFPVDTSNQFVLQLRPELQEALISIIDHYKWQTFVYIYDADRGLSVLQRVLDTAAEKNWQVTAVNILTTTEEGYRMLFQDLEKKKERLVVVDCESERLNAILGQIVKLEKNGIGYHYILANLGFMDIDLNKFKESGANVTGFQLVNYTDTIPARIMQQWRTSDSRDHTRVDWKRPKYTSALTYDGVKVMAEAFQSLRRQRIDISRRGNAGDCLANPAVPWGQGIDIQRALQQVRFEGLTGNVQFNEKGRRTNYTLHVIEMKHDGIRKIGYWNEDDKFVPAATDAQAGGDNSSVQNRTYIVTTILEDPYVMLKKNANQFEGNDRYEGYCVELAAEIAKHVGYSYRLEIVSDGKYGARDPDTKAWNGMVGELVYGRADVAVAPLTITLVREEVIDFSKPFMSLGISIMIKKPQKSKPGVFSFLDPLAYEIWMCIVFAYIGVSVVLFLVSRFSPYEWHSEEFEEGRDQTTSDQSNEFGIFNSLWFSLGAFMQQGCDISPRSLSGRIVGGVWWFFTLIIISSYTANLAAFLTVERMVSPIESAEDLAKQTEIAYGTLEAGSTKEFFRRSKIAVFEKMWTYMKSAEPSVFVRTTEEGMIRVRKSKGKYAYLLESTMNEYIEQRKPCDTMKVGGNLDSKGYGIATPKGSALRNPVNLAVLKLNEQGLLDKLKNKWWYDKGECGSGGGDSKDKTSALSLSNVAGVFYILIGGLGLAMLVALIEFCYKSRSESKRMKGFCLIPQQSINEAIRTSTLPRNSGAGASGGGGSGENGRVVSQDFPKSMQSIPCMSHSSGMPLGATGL
UniProt P19491, residues 22-883: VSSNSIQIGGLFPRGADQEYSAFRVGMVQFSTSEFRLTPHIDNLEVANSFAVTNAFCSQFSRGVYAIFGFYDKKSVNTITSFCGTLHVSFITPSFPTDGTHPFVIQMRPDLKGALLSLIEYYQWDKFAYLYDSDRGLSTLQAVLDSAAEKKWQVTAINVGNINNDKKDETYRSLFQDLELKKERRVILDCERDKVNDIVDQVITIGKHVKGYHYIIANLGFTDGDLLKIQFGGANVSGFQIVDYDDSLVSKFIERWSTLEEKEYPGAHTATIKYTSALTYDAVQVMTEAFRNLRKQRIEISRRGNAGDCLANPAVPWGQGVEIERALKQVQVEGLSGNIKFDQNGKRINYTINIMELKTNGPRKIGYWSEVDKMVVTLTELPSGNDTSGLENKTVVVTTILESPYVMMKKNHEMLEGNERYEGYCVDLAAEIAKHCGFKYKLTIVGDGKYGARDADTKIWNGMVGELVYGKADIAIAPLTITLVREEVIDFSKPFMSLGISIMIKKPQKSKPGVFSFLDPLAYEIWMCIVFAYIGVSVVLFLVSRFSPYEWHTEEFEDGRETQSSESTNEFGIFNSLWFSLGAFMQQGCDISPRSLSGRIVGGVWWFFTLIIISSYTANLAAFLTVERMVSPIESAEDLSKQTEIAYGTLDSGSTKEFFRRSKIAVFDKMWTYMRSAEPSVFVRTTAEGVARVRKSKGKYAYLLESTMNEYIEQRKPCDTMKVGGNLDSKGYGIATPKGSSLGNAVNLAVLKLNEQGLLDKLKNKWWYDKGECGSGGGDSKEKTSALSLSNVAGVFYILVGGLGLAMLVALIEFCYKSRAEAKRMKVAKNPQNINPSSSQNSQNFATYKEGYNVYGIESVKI

[2] = molecular target: T2, GST Rho-GAP (Myo9a amino acids 2135-2338 fused to GST) (rat) (UniProt Q9Z1N3)
T2 sequence: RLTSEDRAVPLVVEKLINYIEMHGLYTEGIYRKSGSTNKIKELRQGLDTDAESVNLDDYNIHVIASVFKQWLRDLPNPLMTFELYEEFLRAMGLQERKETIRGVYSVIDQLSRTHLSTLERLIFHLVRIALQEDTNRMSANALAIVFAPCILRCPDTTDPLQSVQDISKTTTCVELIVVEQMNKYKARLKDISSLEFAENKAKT

[3] = molecular target: T3, GST C-terminal (Myo9a amino acids 2330-2626 fused to GST) (rat) (UniProt Q9Z1N3)
T3 sequence: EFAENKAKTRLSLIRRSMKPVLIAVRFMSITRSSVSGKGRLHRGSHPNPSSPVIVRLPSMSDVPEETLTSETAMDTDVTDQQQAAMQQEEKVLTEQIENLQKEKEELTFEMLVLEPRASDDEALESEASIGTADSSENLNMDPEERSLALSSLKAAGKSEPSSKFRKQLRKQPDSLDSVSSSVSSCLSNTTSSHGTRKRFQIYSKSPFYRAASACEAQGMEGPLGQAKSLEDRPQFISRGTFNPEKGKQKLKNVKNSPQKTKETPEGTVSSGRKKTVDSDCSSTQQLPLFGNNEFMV

binding [1] | binding [2] | binding [3] | Substance
no binding | no binding | no binding | GluA1 (rat) expressed in HEK293 cells (from UniProt P19490 19-907) (receptor)
no binding | no binding | binds | GluA2 (rat) expressed in HEK293 cells (from UniProt P19491 22-883) (receptor)
